Structures are written as SMILES. Values joined by “and” are separate entries in the source; they are usually repeats but may differ in a detail not shown here. Equal entries are not always repeated. Some of the results follow. These are further read-outs of the screen, such as a control signal, another cell line or another target. No call is given for them.

What all share (test): Primary Screen for Target Class Profiling of Small Molecule Inhibitors of Methyltransferases
In test [1] the target is Glycine N-methyltransferase (Homo sapiens) (UniProt Q14749). As to conditions: purified enzyme, MTase-Glo SAH luminescence; measured here: GNMT inhibition; at 40 µM; stronger effect = lower value. The essentials: (§1)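 Each enzyme was assayed with SAM and its substrate. SAH formation detected by MTase-Glo luminescence; single-point 40 uM screen[…].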
Test [2] addresses Guanidinoacetate N-methyltransferase (Homo sapiens) (UniProt Q14353). As to conditions: purified enzyme, MTase-Glo SAH luminescence; measured here: GAMT inhibition; at 40 µM; stronger effect = lower value. Put shortly:
as §1

Test [3] addresses Histamine N-methyltransferase (Homo sapiens) (UniProt P50135). The conditions noted are these: purified enzyme, MTase-Glo SAH luminescence; measured here: HNMT inhibition; at 40 µM; stronger effect = lower value. Put shortly: as §1
For test [4], the target named is Nicotinamide N-methyltransferase (Homo sapiens) (UniProt P40261). The conditions noted are these: purified enzyme, MTase-Glo SAH luminescence; measured here: NNMT inhibition; at 40 µM; stronger effect = lower value. The essentials: as §1
In test [5] the target is Phenylethanolamine N-methyltransferase (Homo sapiens) (UniProt P11086). The conditions noted are these: purified enzyme, MTase-Glo SAH luminescence; measured here: PNMT inhibition; at 40 µM; stronger effect = lower value. Put shortly:
as §1
On the % scale 0 is the no-effect control and ±100 the full control effect.

For the compound `CC(C)NC(=O)c1ccc2c(=O)n(Cc3ccccc3)c3nn(Cc4cccc(Cl)c4)c(=O)n3c2c1`, the activity change, negative = inhibition in test [1] worked out at 4.45%; in test [2], 0.911%; in test [3], 9.86%; in test [4], 4.83%; in test [5] it was 7.85%.

With `CC(C)Cn1c(=O)c2ccccc2n2c(SCC(=O)Nc3ccccc3F)nnc12`, the activity change, negative = inhibition in test [1] was -2.56%; in test [2], 4%; in test [3], 4.85%; in test [4], -8.29%; in test [5] it was 4.04%.

Turning to `CN1C(=O)c2cc(C(=O)N3CCC(C(N)=O)CC3)nn2CC1(C)C(=O)NC1CCCCCC1` (stereo not given), the activity change, negative = inhibition in test [1] was -3.29%; in test [2] it was -3.17%; in test [3], -6.21%; in test [4] it was -2.44%; in test [5], -4.46%.

In the case of `O=C1NC(c2cccc([N+](=O)[O-])c2)=CCN1c1ccccc1O`, the activity change, negative = inhibition was -10.3% and -4.43% in test [1]; -5.94% and 13.2% in test [2]; 6.27% and 10.4% in test [3]; -12.1% and -4.17% in test [4]; 0.027% and 5.6% in test [5].

On to `CC(=O)OCC(=O)[C@@]1(O)CC[C@H]2[C@@H]3CCC4=CC(=O)C=C[C@]4(C)[C@H]3[C@@H](O)C[C@@]21C`, for which the activity change, negative = inhibition is 1.68% in test [1]; 5.2% in test [2]; 7.78% in test [3]; -6.23% in test [4]; 4.43% in test [5].

In the case of `CCCn1c(=O)c2ccc(C(=O)NC(C)C)cc2n2c(=O)n(CC(=O)NCc3ccccc3)nc12`, the activity change, negative = inhibition is 0.471% in test [1]; -0.081% in test [2]; 2.07% in test [3]; -2.58% in test [4]; -6.45% in test [5].

Consider `CC1CCCC(C)N1CCNC(=O)CCCc1nnc2n3nc(-c4ccccc4)nc3c3ccccc3n12` (stereo not given), for which the activity change, negative = inhibition is -2.16% in test [1]; 1.75% in test [2]; -23.8% in test [3]; 11% in test [4]; 2.3% in test [5].

On to `COc1ccc(C2C(C(=O)O)C(C(=O)O)C2c2ccc(OC)cc2O[C@@H]2O[C@H](CO)[C@@H](O)[C@H](O)[C@H]2O)c(O[C@@H]2O[C@H](CO)[C@@H](O)[C@H](O)[C@H]2O)c1` (stereo not given in full), for which the activity change, negative = inhibition in test [1] was -6.56%; in test [2], -5.38%; in test [3] it was 4.07%; in test [4], -18.3%; in test [5], -13%.

Turning to `C=C(CO)C(=O)O[C@H]1C[C@@]23O[C@@H]2CC/C(=C/[C@H]2OC(=O)C(=C)[C@H]12)CO[C@H]3O`, the activity change, negative = inhibition is -2.58% in test [1]; -14.8% in test [2]; 5.99% in test [3]; -26.2% in test [4]; -0.425% in test [5].

As to `C=C(C)C(=O)OC1CC(CO)CCC/C(CO)=C/C2OC(=O)C(=C)C21` (stereo not given), the activity change, negative = inhibition in test [1] was 2.67%; in test [2], 2.82%; in test [3], 4.35%; in test [4], -6.73%; in test [5] it was 6.58%.

With `O=C(Cn1c(=O)oc2ccccc21)N1CC2CC(C1)[C@H]1CCCC(=O)N1C2` (stereo not given in full), the activity change, negative = inhibition was -3.93% in test [1]; -8.68% in test [2]; -3.11% in test [3]; -14.7% in test [4]; 6.31% in test [5].

For `CC(C)CNC(=O)c1ccc2c(=O)n(CC(C)C)c3nn(CC(=O)Nc4cccc(F)c4)c(=O)n3c2c1`, the activity change, negative = inhibition in test [1] came to 5.88%; in test [2], 3.83%; in test [3], 7.1%; in test [4] it was 6.03%; in test [5], 6.07%.

As to `Cc1ncc2c(c1CNC(=O)c1ccc(OC(F)F)cc1)CCNC2`, the activity change, negative = inhibition was -6.02% in test [1]; -1.82% in test [2]; -4.29% in test [3]; -3.6% in test [4]; 5.65% in test [5].

With `CC(=O)Nc1c2n(c3ccc(F)cc13)CC(C)(C(=O)NC1CCCC1)N(c1ccccc1C)C2=O` (stereo not given), the activity change, negative = inhibition in test [1] was 1.29%; in test [2], 2.68%; in test [3] it was -5.02%; in test [4], 2.11%; in test [5] it was -1.13%.

For the compound `O=C1COc2nccc(-c3ccccc3F)c2CN1Cc1cc(C(F)(F)F)cc(C(F)(F)F)c1`, the activity change, negative = inhibition in test [1] is -4.15%; in test [2] it was 2.67%; in test [3], 5.39%; in test [4] it was -27.3%; in test [5] it was -4.57%.

In the case of `Cc1ccc(Cl)cc1N1C(=O)c2cc3sccc3n2CC1(C)C(=O)NC1CCCC(C)C1C` (stereo not given), the activity change, negative = inhibition is -3.33% in test [1]; 2.35% in test [2]; -0.027% in test [3]; 3.41% in test [4]; -1.55% in test [5].

Consider `CC1(C(=O)NC2CCCCCCC2)Cn2c(ccc2-c2ccccc2)C(=O)N1Cc1cccnc1` (stereo not given), for which the activity change, negative = inhibition in test [1] was -2.81%; in test [2], -0.284%; in test [3], -7.36%; in test [4] it was -17.2%; in test [5] it was -7.39%.

`O=C(c1cc(F)ccc1Cl)N1CCCC1c1nncn1Cc1ccncc1` (stereo not given): the activity change, negative = inhibition in test [1] is -1.1%; in test [2], 1.43%; in test [3], -0.235%; in test [4] it was -1.31%; in test [5] it was -3.08%.

As to `CC1CCCC(NC(=O)C2(C)Cn3c(cc4occc43)C(=O)N2Cc2cccc(Cl)c2)C1C` (stereo not given), the activity change, negative = inhibition in test [1] was -3.07%; in test [2] it was 4.29%; in test [3] it was 3.47%; in test [4], -7.8%; in test [5] it was -1.24%.

Take `Cc1ccc(C)c(N2C(=O)CSc3c(c4ccccc4n3C)C2C(=O)NCc2ccc(F)cc2)c1` (stereo not given): the activity change, negative = inhibition is -1.37% in test [1]; 2.56% in test [2]; 9.96% in test [3]; 8.37% in test [4]; 8.39% in test [5].

For `CN(Cc1ccc(-c2ccccc2)cc1)CC1CCCCC1`, the activity change, negative = inhibition is -6.03% in test [1]; -6.76% in test [2]; -3.02% in test [3]; -5.35% in test [4]; -3.6% in test [5].

For the compound `CCCN(CC1CC1)c1nc(C)nc(Nc2c(Cl)cc(Cl)cc2Cl)c1Cl`, the activity change, negative = inhibition is 2.58% in test [1]; 9.66% in test [2]; 7.84% in test [3]; -7.07% in test [4]; -0.551% in test [5].

Take `O=C(CCl)Nc1cccc(NC2=NS(=O)(=O)c3ccccc32)c1`: the activity change, negative = inhibition in test [1] was -32%; in test [2] it was -8.73%; in test [3], 6.34%; in test [4], -12.2%; in test [5], -1.69%.

In the case of `CCN1C(=O)c2c(C(=O)NCc3cccc(Br)c3)ncn2CC1(C)C(=O)NC1CCCC1` (stereo not given), the activity change, negative = inhibition in test [1] was -5.33%; in test [2], 3.6%; in test [3], 2.12%; in test [4], -0.266%; in test [5], -1.43%.

Regarding `O=C(Cn1nc2n(CCc3ccccc3)c(=O)c3ccccc3n2c1=O)Nc1ccccc1F`, the activity change, negative = inhibition in test [1] is 2.88%; in test [2] it was 0%; in test [3], 9.4%; in test [4], -0.571%; in test [5], 3.42%.

Consider `O=C(OCC1OC(Oc2ccc(O)cc2COC(=O)C2(O)C(O)CCC(=O)C2OC(=O)C2C=CCC2)C(OC(=O)C2C=CCC2)C(O)C1O)C1C=CCC1` (stereo not given), for which the activity change, negative = inhibition in test [1] is -2.29%; in test [2], 6.88%; in test [3], 7.74%; in test [4], -7.75%; in test [5] it was 5.43%.

`Cc1cc(OC2CN(C(=O)c3ccccn3)C2)ccc1F`: the activity change, negative = inhibition in test [1] is -3.65%; in test [2], 1.93%; in test [3], 1.2%; in test [4] it was -16.8%; in test [5] it was -0.727%.

As to `CCc1cc2c(cc3n2CC(C)(C(=O)NC2CCC(C)CC2)N(C2CCCC2)C3=O)s1` (stereo not given), the activity change, negative = inhibition in test [1] is 3.44%; in test [2], 2.39%; in test [3] it was 5.62%; in test [4] it was 2.41%; in test [5], 1.45%.

Consider `CCCCCNC(=O)c1ccc2c(=O)nc3c(-c4ccc(OC)cc4)n[nH]n3c2c1`, for which the activity change, negative = inhibition in test [1] came to 3.89%; in test [2], 0%; in test [3], 8.35%; in test [4], 5.28%; in test [5], 1.34%.

Values taken from PubChem BioAssay AID1745853 (National Center for Advancing Translational Sciences (NCATS), 2022).
